Reference: the supplement of paper PMC12217912
The other results are listed elsewhere or left out. Sequences were assembled here from the parent chain. Values near 0.05 are background.

B1: TEV protease; numbered along this chain (parent)
chain: MGESLFKGPRDYNPISSSICHLTNESDGHTTSLYGIGFGPFIITNKHLFRRNNGTLVVQSLHGVFKVKDTTTLQQHLVDGRDMIIIRMPKDFPPFPQKLKFREPQREERICLVTTNFQTKSMSSMVSDTSCTFPSGDGIFWKHWIQTKDGQCGSPLVSTRDGFIVGIHSASNFTNTNNYFTSVPKNFMELLTNQEAQQWVSGWRLNADSVLWGGHKVFMVKPEEPFQPVKEATQL

Variants of: B1
Experiment: raw area under fraction-flipped curve 0-4 h after induction (AUC4h, not background-subtracted), DNA-recorder readout of cleavage of the substrate (dimensionless); higher = more cleavage of the substrate by the protease variant
Details: temperature: 34 °C; time window: 0-4 h after rhamnose induction
Description: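 In vivo DNA recorder in E. coli TOP10(DE3) ΔrhaA at 34 °C. Each TEVp single-site mutant (parent TEVp 0) is paired with a single-site variant of the 7-mer TEVs (canonical ENLYFQ|S). The substrate sits between flexible linkers in a Bxb1-sfGFP-TEVs-SsrA fusion, so cleavage stabilises Bxb1 and speeds flipping of a recombination array, read by NGS. The value is the raw area under the fraction-flipped curve over 0-4 h after rhamnose induction (AUC4h), with ≥20 reads per time point. It is not background-subtracted; inactive controls average about 0.047.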
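Also: Bxb1 expression induced with 0.2% (w/v) L-rhamnose at OD600 near 0.5, cultures sampled hourly, flipped fraction per protease–substrate barcode pair counted by paired-end Illumina sequencing.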

| Variant | area with substrate ENLYAQS | area with substrate ENLYDQS | area with substrate ENLYEQS | area with substrate ENLYGQS | area with substrate ENLYHQS | area with substrate ENLYIQS | area with substrate ENLYKQS | area with substrate ENLYNQS | area with substrate ENLYPQS | area with substrate ENLYQQS | area with substrate ENLYRQS | area with substrate ENLYSQS | area with substrate ENLYVQS | area with substrate ENLYWQS | area with substrate ENLYCQS | area with substrate ENLYMQS | area with substrate ENLYTQS | area with substrate ENLYLQS | area with substrate ENLYYQS |
| --- | --- | --- | --- | --- | --- | --- | --- | --- | --- | --- | --- | --- | --- | --- | --- | --- | --- | --- | --- |
| D208V | 0.067 | 0.0459 | 0.0654 | 0.0594 | 0.0617 | 0.0737 | 0.0751 | 0.0671 | 0.0546 | 0.0492 | 0.0685 | 0.0164 | 0.0792 | 0.0618 | – | – | – | – | – |
| M88Y | 0.0487 | 0.0819 | – | – | 0.0651 | 0.0614 | – | 0.0472 | 0.0912 | 0.033 | – | – | – | – | – | – | – | – | – |
| T72A | 0.0861 | 0.0659 | – | – | 0.0592 | 0.108 | 0.0558 | – | 0.0565 | – | – | 0.0727 | 0.0837 | 0.0764 | 0.0675 | 0.0668 | 0.0976 | – | – |
| E224C | 0.0797 | – | 0.0666 | 0.0625 | 0.0593 | 0.104 | 0.0688 | 0.0648 | 0.0588 | 0.0231 | 0.069 | 0.0774 | 0.0956 | 0.082 | – | 0.0909 | 0.0263 | 0.078 | 0.0537 |
| D128N | 0.082 | 0.0744 | 0.0684 | 0.0617 | 0.0756 | – | 0.0716 | 0.06 | – | 0.0629 | 0.0613 | 0.08 | – | 0.0731 | – | 0.0906 | – | – | – |
| G28L | 0.0798 | 0.0658 | 0.0455 | 0.0593 | 0.058 | 0.101 | 0.0477 | 0.0689 | 0.069 | 0.0611 | 0.0541 | 0.0601 | 0.0994 | – | 0.0818 | 0.082 | 0.0629 | 0.0713 | – |
| R81T | 0.0748 | 0.0696 | 0.0674 | 0.0669 | 0.0639 | 0.0665 | 0.0595 | 0.0627 | 0.0606 | – | 0.0743 | 0.055 | 0.0681 | 0.0586 | – | 0.0685 | – | – | 0.0597 |
| V200H | 0.0647 | 0.0566 | 0.0548 | 0.0453 | 0.0665 | 0.132 | 0.0612 | 0.0645 | 0.065 | 0.062 | 0.0341 | 0.0643 | 0.0881 | 0.0652 | 0.0841 | 0.0711 | 0.0652 | 0.0742 | 0.0593 |
| L61G | 0.0726 | 0.0609 | 0.0778 | 0.0708 | 0.0735 | 0.12 | 0.0519 | – | 0.0702 | 0.0681 | 0.0603 | 0.0772 | 0.114 | – | – | 0.0866 | 0.0791 | – | – |
| I167K | 0.0493 | 0.0501 | 0.0586 | 0.0572 | 0.0589 | 0.0455 | 0.0249 | 0.0551 | 0.0581 | 0.0577 | 0.0583 | 0.0648 | 0.0604 | 0.0646 | 0.0606 | 0.0447 | 0.0524 | – | 0.0466 |
| E25K | 0.0693 | 0.0672 | 0.0668 | 0.0606 | 0.071 | 0.131 | 0.0565 | 0.065 | – | 0.0587 | 0.0662 | 0.0678 | 0.147 | 0.0655 | 0.0604 | 0.0855 | 0.0897 | – | 0.0658 |
| V157F | 0.0722 | 0.0505 | 0.0515 | 0.0678 | 0.0585 | 0.0918 | 0.0141 | 0.0534 | – | – | 0.05 | 0.051 | 0.0875 | 0.0777 | 0.0538 | 0.0771 | 0.0733 | – | – |
| T176C | 0.0993 | 0.0604 | 0.0782 | 0.0546 | 0.055 | – | 0.0513 | 0.0676 | – | 0.0694 | 0.0671 | 0.0628 | – | – | – | – | – | 0.0599 | 0.0746 |
| C152D | 0.0655 | – | 0.0584 | 0.0666 | – | – | – | 0.0579 | 0.054 | 0.0729 | – | 0.0907 | 0.052 | – | 0.0574 | 0.0616 | 0.0464 | 0.054 | – |
| C152A | 0.0695 | 0.0617 | 0.0558 | 0.0586 | 0.0527 | 0.0704 | – | 0.0657 | – | 0.0539 | 0.0578 | – | 0.0612 | 0.0579 | 0.061 | – | 0.145 | – | – |
| C152F | 0.0617 | 0.062 | 0.0673 | 0.0573 | 0.0595 | 0.0511 | 0.0646 | 0.0495 | 0.0579 | 0.0577 | 0.0581 | 0.0634 | 0.0636 | 0.0642 | 0.0567 | 0.0522 | 0.0448 | 0.0631 | – |
| R160D | 0.0746 | 0.0508 | 0.0728 | 0.0729 | 0.0789 | 0.133 | 0.0802 | 0.069 | 0.0691 | – | 0.06 | 0.0542 | 0.114 | 0.0807 | – | 0.0895 | – | – | – |
| R106D | 0.0813 | 0.0549 | 0.0629 | 0.0609 | 0.0797 | 0.118 | 0.0656 | 0.0669 | 0.0768 | – | 0.0658 | 0.0805 | 0.115 | 0.0684 | 0.116 | 0.0872 | 0.0987 | 0.0864 | 0.0772 |
| D11W | 0.0615 | 0.0646 | 0.0561 | 0.0619 | 0.0657 | 0.146 | 0.0627 | 0.0883 | 0.0678 | – | – | 0.0738 | 0.0882 | – | – | 0.103 | – | – | – |
| Q75P | 0.067 | 0.0638 | 0.0582 | 0.066 | 0.0499 | 0.0487 | 0.0662 | 0.0643 | 0.0583 | 0.0579 | 0.0559 | 0.0544 | 0.0593 | 0.0633 | – | 0.057 | – | 0.0557 | 0.0549 |
| L112Y | 0.0551 | 0.0681 | 0.0601 | 0.0564 | 0.0688 | 0.0624 | 0.0393 | 0.0527 | – | 0.0475 | – | 0.071 | 0.0404 | 0.0606 | 0.0592 | 0.0577 | 0.0947 | – | – |
| L112F | 0.0836 | 0.0479 | 0.0672 | 0.063 | 0.0687 | 0.0907 | 0.071 | 0.0502 | – | 0.0659 | 0.0425 | 0.0888 | 0.0836 | 0.0601 | 0.0736 | 0.075 | 0.0631 | – | – |
| G80C | 0.0645 | 0.0589 | 0.0659 | 0.0638 | 0.0974 | 0.113 | 0.0539 | 0.0704 | 0.0668 | 0.0406 | 0.0557 | 0.0746 | – | 0.0874 | – | 0.08 | 0.0728 | – | 0.0559 |
